Measurements taken from PubChem BioAssay AID1030 (National Center for Advancing Translational Sciences (NCATS), 2008).
About 16,000 (7.3%) of roughly 220,000 compounds were called active. This list was built around the results that the source calls inconclusive (neither active nor inactive); the mix of calls is not that of the screen. Calls come from the whole dose curve; as a rule, active = well fitted inhibition curve with a large enough effect (not every such curve was filed as active); inconclusive = small, poorly fitted or top-dose-only effect, or another doubt; inactive = no such curve, though single readings can be large or run the other way. Potencies of inconclusive entries are doubtful fits and often do not repeat.

The compounds below were run against Aldehyde dehydrogenase 1A1 (Homo sapiens) (UniProt P00352) (assay: qHTS Assay for Inhibitors of Aldehyde Dehydrogenase 1 (ALDH1A1)). Conditions: Purified ALDH1A1, NADH fluorescence, propionaldehyde substrate; series mostly up to 75.3 µM; activity, negative = inhibition: at the top concentration.
Sequence of UniProt P00352 (P00352 whole entry, looked up): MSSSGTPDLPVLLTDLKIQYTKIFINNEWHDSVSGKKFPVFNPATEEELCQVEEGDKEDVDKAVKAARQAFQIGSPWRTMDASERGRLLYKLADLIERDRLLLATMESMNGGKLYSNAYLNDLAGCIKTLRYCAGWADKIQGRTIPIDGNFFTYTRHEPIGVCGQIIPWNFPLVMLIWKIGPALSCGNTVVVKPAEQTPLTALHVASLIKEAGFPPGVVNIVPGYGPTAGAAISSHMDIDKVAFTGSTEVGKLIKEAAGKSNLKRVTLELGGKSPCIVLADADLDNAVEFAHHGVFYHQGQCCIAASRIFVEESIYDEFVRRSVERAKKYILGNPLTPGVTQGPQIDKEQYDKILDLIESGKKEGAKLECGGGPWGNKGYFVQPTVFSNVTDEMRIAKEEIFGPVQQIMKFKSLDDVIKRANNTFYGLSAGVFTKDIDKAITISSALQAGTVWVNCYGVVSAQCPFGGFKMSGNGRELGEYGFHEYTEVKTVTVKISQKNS
Potency is the fitted concentration of half-maximal effect; tags give direction and shape of the fitted curve.
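Throughout, for activity, negative = inhibition: plate controls were no enzyme wells and a reference inhibitor.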

Potency, inconclusive:
O=C(CSc1nnc(-c2ccc(O)cc2)n1Cc1ccco1)c1ccccc1 39.8 µM [inhibitor, single point]
CCc1nnc(NC(=O)c2cc(-c3ccccn3)nc3ccccc23)s1 25.1 µM [inhibitor, partial curve]
CCOC(=O)c1cnc2c(cnn2C)c1NCCC#N 39.8 µM [inhibitor, single point]
CC(=O)c1ccccc1OCC(O)CN1CCN(C(c2ccccc2)c2ccccc2)CC1 (stereo unspecified) 17.8 µM [inhibitor, partial curve]
COc1cc(NC(=S)NCc2ccco2)c(OC)cc1Cl 39.8 µM [inhibitor, single point]
O=C(c1cc(-c2ccccc2O)on1)N1CCc2ccccc2C1 28.2 µM [inhibitor, single point]
COc1cc(CNc2ccc3[nH]c(=O)[nH]c3c2)cc(Cl)c1OCC(=O)NC(C)(C)C 12.6 µM [inhibitor, partial curve]
Cc1ccc(NC(=O)CSC2=C(C#N)C(c3ccco3)C3=C(CCCC3=O)N2)cc1 (stereo unspecified) 15.8 µM [inhibitor, partial curve]
Cc1cc(F)ccc1S(=O)(=O)Nc1ccccc1C(=O)NCc1ccccn1 35.5 µM [inhibitor, partial curve]
COc1ccc(C(=O)C2CCCN(C(=O)c3cccnc3OC)C2)cc1F (stereo unspecified) 35.5 µM [inhibitor, single point]
COc1ccc(OC)c(Cc2nnc(CCC(=O)N3CCCCCC3)o2)c1 17.8 µM [inhibitor, partial curve]
Cc1oc(-c2ccccc2Cl)nc1CSCC(=O)N1CCCC1 39.8 µM [inhibitor, single point]
COc1cc(/C=N/NS(=O)(=O)c2ccc(C)cc2)ccc1OCc1cccc(C(=O)O)c1 39.8 µM [inhibitor, single point]
CCC(=O)NC(Nc1sc2c(c1C(=O)OC)CCN(C)C2)(C(F)(F)F)C(F)(F)F 39.8 µM [inhibitor, single point]
Cc1cc(C)c(NC(=O)CN2C(=O)NC(Cc3ccccc3)C2=O)c(C)c1 (stereo unspecified) 44.7 µM [inhibitor, single point]
Cc1cccc(-n2c(Cc3ccccc3)nnc2SCC(=O)N2CCOCC2)c1 39.8 µM [inhibitor, single point]
CN1CCC(C(=O)N2CCCC(C(=O)c3ccc4c5c(cccc35)CC4)C2)CC1 (stereo unspecified) 39.8 µM [inhibitor, single point]
COCC(C)NC(C(=O)Nc1ccc(Cl)c([N+](=O)[O-])c1)c1ccccc1 (stereo unspecified) 20 µM [inhibitor, partial curve]
Cc1nc2cccc(C(=O)NC3CCCCC3)c2o1 39.8 µM [inhibitor, single point]
COc1ccc(/C=N/c2c(-c3ccc(OC)cc3)nc3n2CCS3)cc1 39.8 µM [inhibitor, single point]
c1ccc(-n2ncc3c(NCc4ccco4)ncnc32)cc1 35.5 µM [inhibitor, partial curve]
O=C(c1cnc2sccn2c1=O)N1CCc2ccccc2C1 35.5 µM [inhibitor, single point]
CCCC(=O)OCC(=O)Nc1ccc(N=Nc2ccccc2)cc1 39.8 µM [inhibitor, single point]
CCN1CCN(Cc2c(O)ccc3c2O/C(=C\c2ccccc2)C3=O)CC1 31.6 µM [inhibitor, single point]
O=C(CCc1nc(-c2ccccc2)no1)NCC1CCCO1 (stereo unspecified) 39.8 µM [inhibitor, single point]
COc1ccc(C2CC(=O)Oc3cc(OC)ccc32)cc1 (stereo unspecified) 56.2 µM [inhibitor, single point]
C=CCOc1c(Br)cc(CNc2nccs2)cc1OC 39.8 µM [inhibitor, partial curve, poor fit]
COc1ccc2c(c1)NC(c1ccc(N(C)C)cc1)c1cccn1-2 (stereo unspecified) 4.47 µM [inhibitor, full curve]
CCOC(=O)c1c(NC(=S)Nc2ccccc2)sc2c1CCN(CC)C2 11.2 µM [inhibitor, partial curve]
CCn1c(SCC(=O)Nc2ccc3c(c2)OCCO3)nnc1-c1ccccn1 39.8 µM [inhibitor, single point]
COc1ccc2oc(=O)c(C(C)=O)cc2c1 35.5 µM [inhibitor, single point]
CC1CCN(C(=O)CSc2nc3ccccc3c(=O)n2Cc2ccc3c(c2)OCO3)CC1 20 µM [inhibitor, partial curve]
CCN(CC)S(=O)(=O)c1cccc(NC(=O)c2ccc(Sc3nncn3C)c([N+](=O)[O-])c2)c1 44.7 µM [inhibitor, single point]
O=C(c1sccc1Cl)N1CCN(Cc2ccc3c(c2)OCO3)CC1 22.4 µM [inhibitor, partial curve]
CCn1c(CSc2ncccn2)nnc1SCC(=O)N1CCCCC1 39.8 µM [inhibitor, single point]
CNc1nccc(-c2ccc(Cl)cc2)c1C#N 35.5 µM [inhibitor, single point]
COc1ccc(C(=O)Nc2ccccc2C(=O)NCc2ccco2)cc1OC 39.8 µM [inhibitor, single point]
N#Cc1c(N)nc2c(c1-c1ccncc1)CCCCC2 31.6 µM [inhibitor, partial curve]
CCCSc1nc(N2CCOCC2)c2c(c1C#N)CC(C)(C)SC2 22.4 µM [inhibitor, single point]
S=C(NC1CCCCC1)NC1CCCCC1 37.7 µM [inhibitor, single point]
CC(C)C[C@@H](CC(=O)N[C@@H](CCCN)CC(=O)N[C@@H]1CCCC[C@H]1C(=O)N[C@H](CC(=O)N[C@@H](CCC(=O)O)CC(=O)O)Cc1c[nH]c2ccccc12)NC(=O)[C@@H]1CCCC[C@H]1N 39.8 µM [inhibitor, single point]
Cc1ccc(SCCC(=O)N2CCCC2)cc1 7.08 µM [inhibitor, partial curve]
Cc1cccc(CSc2nnc(-c3ccco3)n2C)c1 39.8 µM [inhibitor, single point]
CCn1cnc2sc(C(=O)Nc3ccc4c(c3)OCO4)c(C)c2c1=O 25.1 µM [inhibitor, single point]
COc1cccc(OCC(=O)Nc2ccccc2NC(C)=O)c1 3.98 µM [inhibitor, single point]
Cc1nc(CS(=O)(=O)c2ccc(Cl)cc2)cc(Sc2ccccc2Cl)n1 35.5 µM [inhibitor, single point]

Potency, active:
O=C(CCl)N(c1ccc(Cl)cc1)c1c[nH]c2ccccc12 7.08 µM
COc1ccccc1NC(=O)C1=C(C)Nc2nnnn2C1c1ccccn1 (stereo unspecified) 12.6 µM
COc1ccccc1N1CCN(C(c2cc3cc(C)ccc3[nH]c2=O)c2nnnn2C2CCCC2)CC1 (stereo unspecified) 14.1 µM
Cc1ccc(-n2c(C)cc(C3=NNC(=NC4CC4)SC3)c2C)cc1C 18.9 µM
Oc1ccc(/C=N/NC(=S)NC2CC3CCC2C3)cc1 (stereo unspecified) 7.08 µM
O=C(CCS(=O)(=O)c1cccc2nsnc12)N1CCN(C(=O)c2ccco2)CC1 25.1 µM
O=C(CCN1CCCCCC1)c1ccccc1 6.31 µM
COc1ccc(-n2c(=S)[nH]c3cc(C(=O)Nc4ccccc4OC)ccc3c2=O)cc1 15.8 µM
CC(=O)[C@@H]1[C@@H]2C(=O)N(C3CCCCC3)C(=O)[C@@H]2C2c3ccccc3C=CN21 (stereo partly specified) 7.08 µM
COc1cccc(C(=O)/C=C/c2ccc(SC)cc2)c1 15.8 µM

activity, negative = inhibition, inactive:
CC(C)(C)NC(=O)/C(=C/c1ccco1)c1ccccc1 -7.95%
Cc1cc2nccc(-c3cccnc3)n2n1 -1.09%
S=C(Nc1ccc2nccnc2c1)N1CCOCC1 -10.9%
CC(C)C(=O)Nc1cc(C(F)(F)F)ccc1-n1ccnc1 17.6%
CCCCN1C(=O)C(=O)N(CC(=O)N2N=C3/C(=C/c4ccco4)CCCC3C2c2ccco2)C1=O (stereo unspecified) 161%
C=CCNC(=O)c1onc(CSc2ccc(C(C)C)cc2)c1C(=O)O -10.8%
O=[N+]([O-])c1ccccc1/C=N/N1CCN(c2ccccn2)CC1 -3.35%
CC(C)OC(=O)c1cccc(C(=O)Oc2ccccc2)n1 8.57%
Cc1ccccc1NC(=O)COC(=O)c1c[nH]c(=O)[nH]c1=O 9.29%
N#Cc1ccc(-c2csc(NC3=NCCCCC3)n2)cc1 -12.3%
O=C(Nc1ccc2c(c1)OCCO2)Nc1ccc2c(c1)OCO2 -8.5%
COc1cccc(-n2nnc3c(=O)n(Cc4ccc(C)cc4)cnc32)c1 0.852%
O=C(CSc1ncccn1)NCCc1ccccc1 0.944%
CCOc1ccccc1N1CCN(C(=S)NC(=O)C23CC4CC(CC(C4)C2)C3)CC1 -3.4%
CNC(=O)COc1cccc(C(=O)NCc2ccccc2)c1 7.18%
